Measured values: PubChem BioAssay (NCATS)
Values joined by “and” are separate entries in the source; they are usually repeats but may differ in a detail not shown here. Identical values can stand only once. The inconclusive results got no clear call from the source; some entries with a clear call stand among them for comparison. For part of these data: Potencies of inconclusive entries are doubtful fits and often do not repeat. Active and inactive are the calls of the source. Unless noted, calls come from the whole dose curve; as a rule, active = well fitted curve in the direction sought with a large enough effect; inconclusive = small, poorly fitted or top-dose-only effect, or another doubt; inactive = no such curve, though single readings can be large; an effect the other way counts as inactive or inconclusive. Residues, ends and D or L forms follow the SMILES beside them.

Assay: Primary qHTS for inhibitors of nuclear receptor binding SET domain protein 2 (NSD2) in an RCH-ACV wild type WT cells (2C) (AID 1645877); note: nearly all actives have a fitted effect of over 70% in size; for activity change, negative = cell killing: % is set by controls: 0 for no effect and ±100 for the full control effect
Conditions: RCH-ACV (leukaemia line) NSD2 WT (2C) viability, CellTiter-Glo, 72 h; series mostly up to 44.9 µM; activity change, negative = cell killing: at the top concentration
Potency is the fitted concentration of half-maximal effect; tags give direction and shape of the fitted curve.

With `NC(=O)c1cccc(-c2cc(Nc3ccc(OC(F)(F)F)cc3)ncn2)c1` as the compound, how does the Potency read?
Its Potency is active: 23 µM and active: 13.2 µM.

With `Cc1cc(-c2ccc(CC(=O)Nc3ccc(-c4cccnc4)cc3)cc2)ccn1` as the compound, how does the Potency read?
Its Potency is inconclusive: 18.6 µM [inhibitor, partial curve].

For `NC(=O)c1ccc(I)c([N+](=O)[O-])c1`, which Potency is on record?
Its Potency is active: 16.6 µM.

With `NC(=O)c1ccc(N(C(N)=O)c2c(F)cccc2F)nc1-c1ccc(F)cc1F` as the compound, how does the Potency read?
Its Potency is inconclusive: 5.78 µM [inhibitor, partial curve, poor fit] and inactive.

Which Potency does the source give for `CN(CCOc1ccc(CC2SC(=O)NC2=O)cc1)c1ccccn1` (centres undefined) here?
Its Potency is inconclusive: 16.6 µM [inhibitor, partial curve, poor fit].

For `C=C(C)[C@@H]1CC[C@]2(C)CC[C@]3(C)[C@H](CC[C@@H]4[C@@]5(C)CC[C@H](O)C(C)(C)[C@H]5CC[C@]43C)[C@@H]12`, which “activity change, negative = cell killing” value is on record?
The value was inactive: 2.66%.

For `CC(COc1ccccc1)N(CCCl)Cc1ccccc1` (centres undefined), which Potency is on record?
The Potency was inconclusive: 26.6 µM [inhibitor, partial curve, poor fit].

Which Potency does the source give for `O=c1cc(N2CCOCC2)oc2c(-c3cccc4c3sc3ccccc34)cccc12` here?
The Potency was active: 2.63 µM.

Which Potency does the source give for `CN1N=C(N)c2cn([C@@H]3O[C@H](COP(=O)(O)O)[C@@H](O)[C@@H]3O)c3ncnc1c23` here?
Its Potency is inconclusive: 2.35 µM [inhibitor, full curve, poor fit].

For `CN1CCN2c3ncccc3Cc3ccccc3C2C1` (centres undefined), which “activity change, negative = cell killing” value is on record?
Its value is inactive: 1.07%.

Which Potency does the source give for `CCCNC(=O)Nc1ccc(Oc2ncnc3cc(OC)c(OC)cc23)cc1Cl` here?
Its Potency is inconclusive: 18.4 µM [inhibitor, partial curve, poor fit].

Which Potency does the source give for `O=C(O)c1nc(=O)[nH]c(=O)[nH]1` here?
The Potency was inconclusive: 8.11 µM [inhibitor, partial curve, poor fit].

With `COC(=O)[C@H](Cc1ccccc1)NC(=O)[C@@H](N)CC(=O)O` (H-Asp-Phe-OMe) as the compound, how does the Potency read?
The Potency was “inactive”.

Assay: NCATS anti-infectives library activity on HEK293 viability as a counter-qHTS vs the C. elegans viability qHTS (AID 1745854); for activity change, negative = cytotoxicity: % is set by controls: 0 for no effect and ±100 for the full control effect
Conditions: HEK293 viability counter-screen; series mostly up to 41.8 µM; activity change, negative = cytotoxicity: at the top concentration
Method in brief: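 CellTiter-Glo luminescence, read on a CCD imager, scored viability of HEK293 cells after 24 hr compound exposure at 37C. Library tested in several concentrations, 1:5 steps, up to 41.7 uM; digitonin served as control.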

For `Nc1nc2[nH]cc(CCc3ccc(C(=O)N[C@@H](CCC(=O)O)C(=O)O)cc3)c2c(=O)[nH]1`, which “activity change, negative = cytotoxicity” value is on record?
Its value is inactive: 10%.

For `C[C@]1(c2nc3c(C(N)=O)cccc3[nH]2)CCCN1`, which “activity change, negative = cytotoxicity” value is on record?
Its value is inactive: -22.7%.

With `S=c1nc[nH]c2nc[nH]c12` as the compound, how does the Potency read?
The Potency was inconclusive: 5.62 µM [cytotoxic, partial curve].

Which Potency does the source give for `CC(C)=CC[C@@H](O)C1=CC(=O)c2c(O)ccc(O)c2C1=O` here?
The Potency was inconclusive: 31.6 µM [cytotoxic, single point].

With `COc1ccc2nc3cc(Cl)ccc3c(Nc3cc(CN4CCCC4)c(O)c(CN4CCCC4)c3)c2n1` as the compound, how does the Potency read?
Its Potency is inconclusive: 4.47 µM [cytotoxic, full curve, poor fit].

For `COc1ccc(-c2nc(N3CCOCC3)c3sc(CN(C)c4ncc(C(=O)NO)cn4)cc3n2)cn1`, which Potency is on record?
Its Potency is inconclusive: 2 µM [cytotoxic, full curve].

Assay: NCATS anti-infectives library activity on the primary C. elegans qHTS viability assay (AID 1745855; calls by dose curve)
Conditions: C. elegans worm area imaging, day 7; series mostly up to 41.8 µM
Method in brief: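 Titration-based screen in worms: eggs hatched overnight in M9, L1 larvae fed TOP10 capsules in S medium with compound, incubated 21 °C for 7 days; fluorescent objects gated by size and intensity at days 0, 3 and 7.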

For `NC(=O)[C@@H](CCC(F)(F)F)N(Cc1ccc(-c2ncon2)cc1F)S(=O)(=O)c1ccc(Cl)cc1`, which “outcome” value is on record?
The value was “inactive”.

Which “outcome” value does the source give for `S=c1nc[nH]c2nc[nH]c12` here?
Its value is “inactive”.

Which Potency does the source give for `CC(C)=CC[C@@H](O)C1=CC(=O)c2c(O)ccc(O)c2C1=O` here?
Its Potency is active: 16.3 µM.

With `Cc1cc(O)c2c(c1)C(=O)c1cccc(O)c1C2=O` as the compound, how does the “outcome” value read?
Its value is “inactive”.

Which Potency does the source give for `COc1ccc(-c2nc(N3CCOCC3)c3sc(CN(C)c4ncc(C(=O)NO)cn4)cc3n2)cn1` here?
The Potency was active: 14.5 µM.
